# In PubChem BioAssay AID488969 (Vanderbilt High Throughput Screening Facility, 2010):
# In all, about 110,000 compounds were measured (“z-score”: median about -0.1, highest 2% from about 2 on). Some of the results follow. The source made the active and inactive calls.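 The calls were made as follows: active = z-score in the third read window above 3 or below -3; inactive = the rest.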
# Target: Metabotropic glutamate receptor 8 (Rattus norvegicus) (UniProt P70579)
# Assay: rat mGluR8 modulators via GIRK flux, primary screen, cell-based, thallium flux, HTS (AID 488969)
# Details: HEK293 rat mGluR8, GIRK (G protein-gated inwardly rectifying potassium channel) thallium flux, FluoZin2; at 10 µM; stronger effect = higher value; submaximal glutamate (EC20) added with thallium
# Sequence of UniProt P70579 (P70579 whole entry, looked up): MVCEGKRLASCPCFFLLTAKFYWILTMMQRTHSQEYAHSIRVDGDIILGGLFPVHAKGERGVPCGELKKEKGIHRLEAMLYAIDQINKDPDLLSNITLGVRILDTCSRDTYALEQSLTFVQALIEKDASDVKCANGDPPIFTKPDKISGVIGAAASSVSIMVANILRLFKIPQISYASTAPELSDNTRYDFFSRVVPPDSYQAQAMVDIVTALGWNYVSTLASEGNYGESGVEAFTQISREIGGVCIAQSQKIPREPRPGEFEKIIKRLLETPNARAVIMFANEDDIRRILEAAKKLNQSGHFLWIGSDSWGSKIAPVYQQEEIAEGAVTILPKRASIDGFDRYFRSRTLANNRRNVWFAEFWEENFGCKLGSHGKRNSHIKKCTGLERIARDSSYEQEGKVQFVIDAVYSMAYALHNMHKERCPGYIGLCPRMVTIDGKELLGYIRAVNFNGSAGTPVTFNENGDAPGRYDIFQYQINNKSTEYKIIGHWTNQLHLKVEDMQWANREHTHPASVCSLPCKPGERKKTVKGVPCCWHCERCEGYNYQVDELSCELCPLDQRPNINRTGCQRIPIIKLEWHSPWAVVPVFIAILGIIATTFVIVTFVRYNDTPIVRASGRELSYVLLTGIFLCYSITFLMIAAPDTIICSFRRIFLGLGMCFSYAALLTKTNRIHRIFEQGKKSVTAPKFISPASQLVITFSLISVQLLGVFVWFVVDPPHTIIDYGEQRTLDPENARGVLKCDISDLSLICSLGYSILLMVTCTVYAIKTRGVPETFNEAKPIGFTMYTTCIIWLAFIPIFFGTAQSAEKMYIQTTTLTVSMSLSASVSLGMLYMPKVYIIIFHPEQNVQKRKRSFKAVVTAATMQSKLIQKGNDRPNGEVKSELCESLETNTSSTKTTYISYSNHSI
row,Structure (SMILES),z-score
1,Cc1c(-c2ccccc2)oc2c(C(=O)N3CCN(c4ccc([N+](=O)[O-])cc4)CC3)cccc2c1=O,-0.651
2,CCOc1ccccc1-n1c(SCC(=O)NC2CCCC2)nnc1-c1ccoc1C,-0.387
3,O=C(O)CC/C(=N\Nc1ccc(S(=O)(=O)N2CCCC2)cc1[N+](=O)[O-])c1cccs1,-0.648
4,CN1CCN(C(=O)c2ccccc2NC(=O)CCN2C(=O)c3ccccc3C2=O)CC1,-0.0823
5,CCc1ccccc1NC(=S)NC1CC2CCCC(C1)N2Cc1cccs1 (stereo not drawn),-0.211
6,CSc1nsc(/C=C/Nc2cccc(Cl)c2)c1C#N,0.84
7,CCCC(=O)Nc1ccc2c(c1)nc1n2CCOC1,-0.399
8,S=C1NC(c2ccccc2)N2C(=S)NC(c3ccccc3)N12 (stereo not drawn),-1.08
9,CCOC(=O)c1cnc(SCC(=O)Nc2nc(C)c(C)s2)nc1N,active: 3.65
10,CCn1c(-c2cc3ccccc3cc2O)n[nH]c1=S,2.62
11,COc1ccc2nc(SCC(=O)Nc3c(C)cccc3C)[nH]c2c1,0.153
12,COc1ccc(C2C(C(C)=O)=C(O)C(=O)N2c2nccs2)cc1OC (stereo not drawn),-0.189
13,CCOC(=O)COc1ccc(S(=O)(=O)N2CCN(C(=O)OCC)CC2)cc1,0.268
14,Cn1c(=O)c2c(nc(N/N=C/c3cccs3)n2Cc2ccc(Br)cc2)n(C)c1=O,-0.365
15,COc1cccc2c(=O)c3c(cnn3C)n(C)c12,-0.286
16,O=C(NCc1ccccc1)c1ccc2nccnc2c1,-0.133
17,Cc1nc2ccccc2n1CC(=O)N/N=C\C=C\c1ccccc1,-0.388
18,COc1ccc(-n2ncc3c(NCCN4CCOCC4)ncnc32)cc1,-0.0701
19,CC(C)c1nnc(NC(=O)CCC(=O)NC2CCCCCCC2)s1,0.041
20,CC(=O)c1c(N)[nH]c(-c2ccccc2)nc1=S,1.28
21,Cc1cccc2sc(NC(=O)c3cccc(S(=O)(=O)N4CCc5ccccc54)c3)nc12,-0.141
22,COc1ccc(NC(=S)N2CCNC(=O)C2CC(=O)Nc2ccc(C)cc2)cc1 (stereo not drawn),-0.0767
23,CCN(CC)S(=O)(=O)c1ccc2[nH]cc(C(=O)NCCCN3CCCCC3C)c(=O)c2c1 (stereo not drawn),0.337

row,Structure (SMILES),z-score
1,CCOc1ccc(C2=NNC(c3cccs3)=Nc3ccc(OC)cc32)cc1OCC,-0.0395
2,Cc1cc(/C=N/NC(=O)C(O)(c2ccccc2)c2ccccc2)c(C)n1-c1ccccc1,-0.284
3,Cc1ccc(SC(C)c2nc(-c3ccccc3)no2)cc1 (stereo not drawn),0.587
4,C/C(=N\NC(=O)c1c[nH]c2ccccc12)c1ccco1,-0.682
5,CCOC(=O)C1=C(C)NC(=O)NC1c1ccc(OC)c(CN2CCOCC2)c1 (stereo not drawn),0.00374
6,Cc1c(C(=O)NC(C)CN2CCCCC2)oc2ccccc12 (stereo not drawn),0.31
7,COc1ccc(NS(=O)(=O)c2cccc(C(=O)N/N=C(\C)c3ccc(-n4ccnc4)cc3)c2)cc1,-0.435
8,CCCCNC(=O)C1CCN(C/C(C)=C/c2ccccc2)CC1,-0.643
9,Cc1ccc(-c2nnc(C)c(N3CC(C)OC(C)C3)n2)cc1 (stereo not drawn),-0.288
10,COc1cc(NS(=O)(=O)c2ccccc2)ccc1-n1nc(C)cc1C,0.193
11,O=C1NN(c2ccccc2)C(=O)C2C3C=CC(C4CC34)C12 (stereo not drawn),-0.056
12,CCOC(=O)C1CCN(C(=O)Nc2ccc3c(c2)nc(C)n3C)CC1,0.0618
13,O=c1[nH]n(-c2ccc(Cl)cc2)c2ncccc12,-0.246
14,Cc1ccc(S(C)(=O)=O)cc1S(=O)(=O)Nc1cccc(Cl)c1,-0.058
15,CCN=C1Sc2nc3ccc(OCC)cc3cc2CN1CCOC,-0.4
16,COc1ccc(C2C(C(=O)N3CCCC3)c3cc(OC)c(OC)cc3C(=O)N2C)cc1 (stereo not drawn),0.053
17,CCNC(=S)NS(=O)(=O)c1ccccc1,-0.195
18,Cc1cc(Br)ccc1NC(=O)CCN1C(=O)c2ccncc2C1=O,-0.249
19,CCOC(=O)CCc1c(C)c(C#N)c2[nH]c3ccccc3n2c1=O,-0.404
20,C=CCn1c(SCC(=O)Nc2c(C)n(C)n(-c3ccccc3)c2=O)nc2sc(C)c(-c3ccccc3)c2c1=O,-0.378
21,Cc1nc2sc(C(c3ccccc3)N3CCN(c4ccccc4F)CC3)c(O)n2n1 (stereo not drawn),0.377
22,O=C(CCNC(=O)Cn1ccc2ccccc2c1=O)NCCN1CCN(c2ccccc2F)CC1,0.157
23,CC1(C)CC(=O)C(C=NCCN2CCN(C(=O)c3ccc(F)cc3)CC2)=C(O)C1,-0.279

row,Structure (SMILES),z-score
1,CCOC(=O)C(CCCOc1ccccc1)C(=O)OCC,-0.00633
2,CNC(=O)CN(c1cccc2ccccc12)S(C)(=O)=O,0.105
3,Cc1ccc(C)c(C(=O)O/N=C(\N)c2ccc(Br)cc2)c1,-0.197
4,CN(C)CCN1C(=O)C(O)=C(C(=O)c2ccco2)C1c1ccccc1F (stereo not drawn),-0.227
5,Cc1nn(C(C)C(=O)NNC(=S)Nc2ccc(F)cc2)c(C)c1[N+](=O)[O-] (stereo not drawn),-0.385
6,COc1ccccc1N1CCN(S(=O)(=O)c2cccc3nsnc23)CC1,-0.393
7,C=CCSC1=N/C(=C\c2cc(OCC)c(OC(C)=O)c([N+](=O)[O-])c2)C(=O)S1,-0.399
8,CCOC(=O)Cc1csc(NC(=O)C(C)(C)CC)n1,0.0749
9,CCC(C)n1nnc2c(=O)oc3ccccc3c21 (stereo not drawn),-1.17
10,Cc1cc2cc(CN(Cc3ccco3)C(=O)C3CCCCC3)c(=O)[nH]c2cc1C,0.00998
11,Cc1cccc(C(=O)NNC(=O)c2cc3cc4ccccc4nc3s2)c1,0.153
12,COc1ccc(-c2nc(C)c(C(C)=O)n2O)cc1OC,0.246
13,O=C1CCCN1CCC1CCN(C2CC(=O)N(c3ccc(F)cc3)C2=O)CC1 (stereo not drawn),0.0802
14,O=C(NC1CCCC1)C(c1ccc(Cl)cc1)N1CCc2ccccc21 (stereo not drawn),-0.145
15,O=C(Nc1cc2c(oc1=O)CCCC2=O)c1cccc(Cl)c1,-0.0638
16,O=C(CCCC(=O)N1CCN(c2ccccc2F)CC1)N1CCN(c2ccccc2F)CC1,-0.439
17,Cn1c(NCc2ccco2)nc2c1c(=O)n(Cc1ccc(Cl)cc1Cl)c(=O)n2C,-0.0469
18,COc1ccc(S(=O)(=O)CCC(=O)Nc2ccc(OC)cc2OC)cc1,0.237
19,Cc1cc(NC(=O)CSc2n[nH]c(CC(C)C)n2)no1,-0.199
20,Cc1cccc(-n2c(=O)cc(N3CCN(c4ccc(F)cc4)CC3)[nH]c2=O)c1,0.0796
21,CC(=O)/C=C\c1cn(-c2ncc(C(F)(F)F)cc2Cl)c2ccccc12,-0.119
22,CC(C)CC(C(=O)OCC(=O)c1c(N)n(C)c(=O)n(C)c1=O)N1C(=O)c2ccccc2C1=O (stereo not drawn),-0.0745
